From the supplement of paper PMC3334620
Over roughly 33,000 sequences, “E-score (-0.5 to 0.5)” has its median near -0.054; the highest 2% begin near 0.39. This is one part of the list.

target: Ylr278c (UniProt Q05854); assay: PBM E-score (8-mer binding enrichment) (E-score (-0.5 to 0.5)); higher = stronger / more preferred TF binding; most listed sequences are background and not binding sites; conditions: protein concentration: 200 nM; construct: GST-DNA-binding domain
In short: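 Using PURExpress in vitro transcription/translation, GST-tagged yeast transcription factors were made in full-length or DNA-binding-domain form. These were applied at about 100-200 nM to double-stranded universal all-10-mer Agilent arrays, and bound protein was detected with fluorescent anti-GST. Scans were normalised with masliner before the Universal PBM Analysis Suite assigned E-scores to ungapped eight-base words pooled with their reverse complements.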

Sequence | PBM E-score
AGGGACTC | -0.166
ATGCCTGC | 0.00735
CTACGTAA | -0.068
ATGGAGGC | -0.15
CATACAGA | -0.0143
AAGTTCGA | -0.0118
AAGCTTGT | -0.0549
GCCGTCAA | -0.0801
CGAGCTTA | -0.0265
CCTGATCC | 0.055
AGCGACAA | -0.185
AAGGTTTG | -0.0884
CTTCTGCC | -0.135
GTTTGGCA | -0.118
TATGGCAA | -0.0943
CCTATCTC | 0.144
GACGGCTC | 0.0564
CTGGAGCA | -0.185
AAATACCC | 0.192
GCTCGGCC | 0.152
GCAAAGCA | -0.178
CTATCGAC | -0.228
CTCCCGTC | 0.213
ACAGTACT | -0.146
AGGGCTCA | -0.277

Sequence | PBM E-score
AATCGGGA | 0.231
CTGTACGC | -0.138
GCCGAAAA | 0.359
AGTCAACT | -0.312
CTAGTGCA | -0.0821
ACAAATTC | 0.153
CAATCGGC | 0.129
CACAATAA | -0.137
CCAAGCTC | -0.0553
CAGTATTC | -0.101
TGTGCCAA | -0.0672
GCCAAACA | 0.0977
CCTGACAG | -0.0842
GCCGCACC | 0.24
GCCTGTTA | -0.189
GGCAACCA | 0.0912
AGATGAAG | -0.123
ACTCATGG | -0.191
AGGGGCTG | -0.177
ATTTCTTC | 0.1
CCATTGCA | -0.289
CCGTAGCC | 0.0108
ACTTACTG | -0.0338
CAATTGAC | 0.0114
CTCGAACA | -0.209

Sequence | PBM E-score
ACCGACCG | 0.184
AGTTCTAC | -0.331
CCACCGCC | 0.00359
ATTTGGCA | -0.183
GAGACTCA | -0.113
CTGCTTAA | -0.116
CCAGTTAG | -0.247
CTGCCCAG | -0.158
CAGCTAAG | -0.453
CTGAAGTA | -0.0935
ACAACGTG | -0.0794
CGGCAACG | 0.164
GGCTAGAC | -0.0944
CGGTAATC | 0.326
CTATCCTA | -0.0472
ATGGTTAG | 0.0697
CTCCACAC | -0.156
GCAAATCC | 0.286
AGCATCCA | -0.17
CTGCAAAG | -0.3
GGGGAGCA | -0.0491
AACCGGAG | 0.48
GCCGCCAC | 0.0465
CCACTTAA | 0.0138
ACAGTTGC | -0.0746

Sequence | PBM E-score
ATTTACCA | 0.0876
CCGCTTCC | 0.278
AGGTGCTC | -0.163
AAGAGATC | -0.146
CATCTACG | 0.0857
AGCCCCAC | 0.00659
AAACTCGC | 0.0784
GGGCTGGA | -0.0332
CGTTCAAG | 0.0399
ACAGTGGC | -0.205
GCAGAGGA | -0.104
CAGTAACG | -0.117
TACCTCGA | -0.212
TCCCATAA | -0.204
AACACAGT | -0.0468
GGATACCA | 0.082
GATACCGA | 0.0344
GAGAGTAC | -0.0459
AGGGAGTC | -0.297
AAGGTCGT | -0.279
AAAGCCTC | -0.0828
AGTGGAGC | -0.209
ATAAATCA | -0.166
CCGGTGAA | 0.363
TATGCCAA | -0.142

Sequence | PBM E-score
CGGAGCTA | 0.42
AGGTGGCA | -0.169
CTACGGAA | 0.197
AACTTGAC | -0.104
CCCTGCAC | -0.0902
GCATTAGA | -0.00923
GCGCCGAC | 0.269
GTAGCCCA | -0.232
GCAGGGGA | -0.143
AGCCTGGC | -0.226
CGGAACGC | 0.348
CGGACCTC | 0.37
GCTATAGA | -0.234
CCGGAGTC | 0.451
AGTTTAAC | -0.158
GATGCGGC | 0.0424
CGAGACTA | 0.077
CGCTTGGC | -0.253
AGTAGACC | -0.18
CACCCCTA | -0.0875
CTGCCTGC | -0.157
CACCGCCG | 0.273
CAATATGA | -0.0406
ATACCCTA | -0.301
AATCTCTA | -0.142

Sequence | PBM E-score
CGTTGCAA | -0.102
GCTAAGAC | -0.0188
CTGTATCC | 0.047
CAAGCTCG | 0.091
ATAAACGC | 0.0693
CCGTTGGC | 0.228
CTAGGGCC | -0.197
CCGATCAC | 0.312
TAAACCGA | 0.0399
AGGGCCAT | -0.178
GTTCGTCA | -0.15
AGCCCTGC | -0.278
CGTGGGGA | -0.0985
GCAGGTGA | -0.115
CTCATGTC | -0.1
AACGGCTT | 0.0117
AGCCATGG | -0.353
TACGGCTA | -0.154
ATCGGTTC | 0.13
AGCCTTCC | -0.134
CAGATGAG | -0.273
AGAGCTGG | -0.0321
GGGGCCAA | -0.0596
GACTGTAA | -0.14
GGAGCCCA | -0.0232

Sequence | PBM E-score
GCCTTTGA | -0.0973
GTAGTTAA | -0.198
ACTTAGGA | -0.402
AGTAGATG | -0.0703
CAGGCCAC | -0.182
AGCTCCGA | 0.47
CGGGCCCG | 0.398
CCGCTAAG | 0.11
CAGACGCG | -0.215
ACCGGGAA | 0.352
GGGAGTAA | 0.0663
CTATTCAA | -0.198
AGGGGTAC | -0.107
GTGACACA | -0.0204
AGCTTGGC | -0.114
ACTCATTG | -0.12
AGCACGCG | 0.018
GAGACGAA | -0.132
CTTCGTTC | -0.185
CGAGACCC | 0.142
CGTGTTCC | 0.3
GCGTCTCC | 0.231
AGGTGCCA | -0.167
CTTGATGC | -0.0971
AGATGGAG | -0.124

Sequence | PBM E-score
ATAATGAT | -0.0458
GAAAAAAC | 0.0368
CTTTCTCA | 0.00043
ATACCACA | -0.162
ATACGGTA | -0.0192
GCGGTAGC | 0.107
GAGTAGGC | -0.00886
CACCTGGC | -0.202
ACCCAACC | 0.0171
TCGGCAGA | 0.18
AAGAACTT | -0.0852
ACCTAACC | 0.0688
CCAATCTC | 0.077
CCAAATAA | -0.0594
GTATCTTA | 0.0804
ATGGTATG | -0.0135
AAATCAAG | -0.0742
ACATGACA | -0.126
ACCGCTTC | -0.0102
CCAGGTGA | -0.398
AGGGGGAC | -0.309
AACGAGGT | -0.203
GTGTTTTA | -0.0233
CCTCCGGA | 0.467
CCGAGCAG | 0.139

Sequence | PBM E-score
AACACCAG | -0.291
ATTAACCA | -0.0281
TAGGGGGA | -0.102
AACTGGTA | -0.0501
TTTCAAAA | 0.0139
TCAGCAGA | -0.295
AGTACACT | -0.249
GTTCCGAA | 0.373
ACGAGGCT | -0.0944
CTAATGGA | -0.0575
CTATATTC | -0.0771
CCCCGATC | 0.374
GGGCATGA | -0.206
CGGTCTCA | -0.12
GTCCCTCA | -0.293
AGTTAAAT | -0.0916
GTCAAGCA | -0.136
TAAGTGGA | -0.0663
AGTCGCTG | -0.25
